In PubChem BioAssay AID360 (National Center for Advancing Translational Sciences (NCATS), 2006):
Screen size: about 48,000 compounds; about 550 (1.1%) were called active. Inconclusive means that the source gave no clear call. Such entries were picked first, then a sample of the others. No stated cut-off is given here; in the data, active means potency below about 15 µM; inconclusive means mostly about 16 µM to 33 µM; inactive means weaker than that. Potencies of inconclusive entries are left out as doubtful fits.

Target: Lysosomal acid glucosylceramidase (Homo sapiens) (UniProt P04062)
Experiment: Glucocerebrosidase;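 further: the screen sought inhibitors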
Conditions: purified enzyme, resorufin glucoside fluorescence (screen aimed at inhibitors), 20 min
How it was run: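 Compounds titrated against 0.2 nM normal enzyme, 30 uM resorufin beta-D-glucopyranoside substrate, citrate/phosphate buffer with taurocholate and tween-20, pH 5.9. Reaction ran 20 min at room temperature; fluorescence (Ex 548/Em 600) gave AC50.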
Potency means the concentration at half of the fitted maximal effect.

UniProt P04062, sequence (P04062 whole entry, looked up): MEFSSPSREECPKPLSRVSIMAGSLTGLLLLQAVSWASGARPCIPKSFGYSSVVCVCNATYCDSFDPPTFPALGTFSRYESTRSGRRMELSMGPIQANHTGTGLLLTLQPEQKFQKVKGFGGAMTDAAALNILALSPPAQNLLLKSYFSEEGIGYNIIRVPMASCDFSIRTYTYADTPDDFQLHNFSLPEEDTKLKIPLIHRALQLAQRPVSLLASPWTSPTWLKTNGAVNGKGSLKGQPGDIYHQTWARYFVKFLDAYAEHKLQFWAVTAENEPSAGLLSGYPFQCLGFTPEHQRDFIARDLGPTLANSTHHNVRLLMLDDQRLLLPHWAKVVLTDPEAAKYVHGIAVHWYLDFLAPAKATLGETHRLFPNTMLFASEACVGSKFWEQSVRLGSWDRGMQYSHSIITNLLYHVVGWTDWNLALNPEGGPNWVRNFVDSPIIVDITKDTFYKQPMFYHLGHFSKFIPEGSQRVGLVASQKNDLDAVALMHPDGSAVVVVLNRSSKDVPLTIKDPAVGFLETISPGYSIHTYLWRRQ

| Structure (SMILES) | Potency |
| --- | --- |
| CCOc1ccc2nc(NCCNS(=O)(=O)c3ccccc3)c(C#N)cc2c1 | inconclusive [decreasing] |
| CCOC(=O)c1c(C)c2c(n1C)CCC/C2=N\O | inactive: > 76.9 µM |
| C=CCOc1ccc(C2N3CC4(C)CN2CC(CCC)(C3)C4=O)cc1 (configuration not stated) | active: 4.77 µM |
| Cc1sc2nc(-c3cccs3)nc(N3CCCN(C)CC3)c2c1C | inactive |
| Cc1ccc(NC(=O)c2ccc(NS(=O)(=O)c3c(C)noc3C)cc2)cc1C | active: 10.9 µM |
| COc1ccc(N2CCN(Cc3nc(N)nc(N4CCCc5ccccc54)n3)CC2)cc1 | active: 7.62 µM |
| O=C(Nc1cccnc1)c1cnn2cccnc12 | inactive: > 76.9 µM |
| Cc1ccc(C2(c3ccc(C)cc3)NC(=O)N(Cc3c(C)noc3C)C2=O)cc1 | inactive: > 76.9 µM |
| C=CCSc1nc(N)c(C(=O)Nc2ccccc2C)cc1C(N)=O | inactive: > 76.9 µM |
| C=CCn1cc(C(=O)NCc2ccco2)c(=O)c2cc(S(=O)(=O)N3CCCCCC3)ccc21 | inconclusive [increasing] |
| CCOC(=O)c1c(C)n(C)c2ccc(OC)c(NC(=O)CN3CCN(C(=O)c4ccco4)CC3)c12 | inactive: > 76.9 µM |
| O=C(NCc1ccc2c(c1)OCO2)C1CCN(S(=O)(=O)c2ccc(Br)s2)CC1 | inconclusive [decreasing] |
| CN1CCc2c(sc3c2c(NCc2ccco2)nc2nnnn23)C1 | inconclusive [decreasing] |
| N#Cc1ccc(COc2ccc(CCO)cc2-n2nc3ccccc3n2)cc1 | inconclusive [increasing] |
| CSCCC1NC2(C(=O)Nc3ccc(Cl)cc32)[C@@H]2C(=O)N(C3CCCC3)C(=O)[C@H]12 (some centres not stated) | inconclusive [decreasing] |
| O=C(CN1CCN(S(=O)(=O)c2cc(Cl)ccc2Cl)CC1)Nc1ccc2c(c1)OCCO2 | inconclusive [decreasing] |
| CCCn1cnc2cc(NCc3cccc(OC)c3O)ccc21 | inconclusive [decreasing] |
| CC(=O)NC1CC2CCCC(C1)N2C(=O)Nc1ccc(Cl)c(C(F)(F)F)c1 (configuration not stated) | inconclusive [decreasing] |
| COc1ccc(OCC(O)CNc2ccc(Br)cc2)cc1 (configuration not stated) | inconclusive [decreasing] |
| CCC(=O)N(Cc1cc2c(C)cc(C)cc2[nH]c1=O)C1CCCCC1 | inactive: > 76.9 µM |
| CCOC(=O)N1CCN(S(=O)(=O)c2cccc3ccc(C)nc23)CC1 | inactive: > 76.9 µM |
| CCOC(=O)c1ccc(NS(=O)(=O)N2CCCCCC2)cc1 | inconclusive [decreasing] |
| COC(=O)c1ccc(Oc2c(C)oc3c(CN4CCN(C)CC4)c(O)ccc3c2=O)cc1 | inconclusive [decreasing] |
| O=C1Nc2ccccc2C12OCC1(CO2)COC2(OC1)C(=O)Nc1ccccc12 (configuration not stated) | inconclusive [decreasing] |
| CC(=O)Nc1cccc(OCC(=O)NS(=O)(=O)c2ccc(C)cc2)c1 | inactive: > 76.9 µM |
| CCC(C)(C)n1nnnc1CN1CCC(c2nc3ccc(C)cc3[nH]2)CC1 | inconclusive [decreasing] |

| Structure (SMILES) | Potency |
| --- | --- |
| Cc1c(C(=O)N2CCOCC2)sc2ncn(CC(=O)N3CCC(C)CC3)c(=O)c12 | inconclusive [decreasing] |
| CC(C)(C)c1ccc(S(=O)(=O)NCCc2ccncc2)cc1 | inconclusive [decreasing] |
| COc1ccc(OC)c(CCNC(=O)CS(=O)(=O)Cc2nc(-c3ccccc3C)oc2C)c1 | inconclusive [decreasing] |
| C=CCn1c(SCC(=O)Nc2cc3oc4ccccc4c3cc2OC)nnc1-c1cnccn1 | inconclusive [increasing] |
| CC(C)c1ccc(OCc2ccc(C(=O)N3CCN(c4ccccn4)CC3)cc2)cc1 | inconclusive [decreasing] |
| O=C(NCc1cccs1)C1CCCN(S(=O)(=O)c2ccc3c(c2)OCO3)C1 (configuration not stated) | inconclusive [decreasing] |
| N#Cc1c(N)nc(-c2ccccc2)nc1-c1ccccc1 | inconclusive [increasing] |
| Cc1nc(SCC(=O)NCC2CCCO2)c2oc3ccccc3c2n1 (configuration not stated) | inactive: > 76.9 µM |
| O=C(CSc1nnc(-c2cccs2)n1-c1ccccc1)N1CCc2ccccc21 | inactive: > 76.9 µM |
| O=c1c2ccccc2nnn1CSc1nnc(-c2ccc3c(c2)OCO3)o1 | active: 8.81 µM |
| CCCCCCNc1c(C(=O)OCC)c(=O)[nH]c2ccccc12 | inconclusive [decreasing] |
| COc1ccc(S(=O)(=O)N(C)CC(=O)Nc2ccc3c(c2)OCO3)cc1OC | inactive: > 76.9 µM |
| Cc1nnc(NC(=O)c2c(F)c(F)c(F)c(F)c2F)s1 | inconclusive [decreasing] |
| COc1ccccc1N1CCN(C(=O)C2CCC(Cn3c(=S)[nH]c4ccccc4c3=O)CC2)CC1 (configuration not stated) | inconclusive [decreasing] |
| Cc1nnc(NC(=O)c2ccc(S(=O)(=O)N(C)Cc3ccccc3)cc2)o1 | active: 14.2 µM |
| COc1ccc(CCNc2oc(COc3ccccc3F)nc2C#N)cc1 | inconclusive [decreasing] |
| c1cc(N2CCCC2)ccc1C(c1nnnn1C1CCCCC1)N1CCOCC1 (configuration not stated) | inconclusive [decreasing] |
| N#Cc1nc(COc2ccc(Cl)cc2)oc1NCc1ccc2c(c1)OCO2 | inactive: > 76.9 µM |
| c1ccc(-c2noc(C3CCCCC3)n2)nc1 | inactive: > 76.9 µM |
| CCOc1ccc(Nc2nc(NCCN3CCOCC3)nc(OC)n2)cc1 | inconclusive [decreasing] |
| O=C(c1cccs1)N(Cc1nc2sc3c(c2c(=O)[nH]1)CCCC3)C1CCCC1 | inconclusive [decreasing] |
| CCCCSc1nnc(-c2cc(Br)ccc2N)c(=O)[nH]1 | inconclusive [decreasing] |
| O=C(Nc1cccnc1)Nc1ccc(F)c(Cl)c1 | inconclusive [decreasing] |
| Cc1cc2oc(=O)cc(CN3CCCCC3C)c2c(C)c1Cl (configuration not stated) | inactive: > 76.9 µM |
| Cn1c(C(=O)OC(C(=O)NC2CCCC2)c2ccncc2)cc2sccc21 (configuration not stated) | inactive: > 76.9 µM |
| O=C(Oc1ccc2c(=O)c(Cl)coc2c1)c1ccncc1 | inactive: > 76.9 µM |

| Structure (SMILES) | Potency |
| --- | --- |
| CCOC(=O)CCSc1nc(C)cc(C(F)(F)F)c1C#N | inconclusive [increasing] |
| COc1ccccc1Oc1coc2cc(O)ccc2c1=O | inactive: > 76.9 µM |
| COC(=O)Nc1ccc2c(c1)N(C(=O)CCN1CCN3CCCC3C1)c1ccccc1S2 (configuration not stated) | inconclusive [decreasing] |
| CCCn1c(=N)n(CC(=O)OCC)c2ccccc21 | inconclusive [decreasing] |
| COC(=O)c1cccc(NC(=O)c2ccc(S(=O)(=O)N3CCN(C)CC3)cc2)c1 | inconclusive [decreasing] |
| COc1ccc2oc(=O)c(-c3nnc(NCc4ccco4)s3)cc2c1 | active: 9.95 µM |
| Cc1nnc(NC(=O)CSc2nnc(Cc3ccccc3)n2-c2ccccc2)s1 | inconclusive [decreasing] |
| OCCSc1nnc(Nc2ccccc2)s1 | inconclusive [decreasing] |
| Cc1ccc(OCC(=O)Nc2cccc(O)c2)cc1C | inconclusive [increasing] |
| CC(C)(C)C(=O)CSc1nc2ncc(Br)cc2[nH]1 | inconclusive [decreasing] |
| CCCCC(c1nnnn1C1CCCC1)N1CCN(C2CCCC2)CC1 (configuration not stated) | inactive: > 76.9 µM |
| CCn1c(=O)cc(OCC(=O)NC2CCCCC2)c2ccccc21 | inconclusive [decreasing] |
| COc1ccc(-n2nnc3c(=O)n(C/C=C/c4ccccc4)cnc32)cc1 | inconclusive [increasing] |
| O=C(O)c1ccccc1C(=O)Nc1n[nH]c(=S)s1 | inconclusive [decreasing] |
| CCN1CCN(c2ncc(C(=O)Nc3cc(Cl)ccc3OC)c3ccccc23)CC1 | inconclusive [decreasing] |
| C=CCNC(=O)C1CC(=O)N(c2ccc(OCC(=O)Nc3ccccc3)cc2)C1 (configuration not stated) | inactive: > 76.9 µM |
| Cc1cc(S(=O)(=O)Nc2cccc(O)c2)c(C)s1 | inconclusive [decreasing] |
| Cc1nc2ccccn2c1-c1csc(NCc2ccco2)n1 | inconclusive [decreasing] |
| N#Cc1ccc(C23CC4CC(CC(C4)C2)C3)[nH]c1=O | inconclusive [decreasing] |
| Cc1ccc(S(=O)(=O)Nc2cc(C(=O)NCCN(C)C)ccc2N2CCCCC2)cc1 | inconclusive [decreasing] |
| CCC(=O)Nc1ccc(NC(=O)CN2CCCC(C)C2)c(Cl)c1 (configuration not stated) | inconclusive [decreasing] |
| CS(=O)(=O)N1CCC(C(=O)Nc2ccc(Oc3ccccc3)cc2)CC1 | active: 14.3 µM |
| COc1ccc(Cl)cc1NC(=O)CCN1CCN(c2ccccc2C)CC1 | inconclusive [decreasing] |
| CCn1c(=N)n(CC(=O)C23CC4CC(CC(C4)C2)C3)c2ccccc21 | inconclusive [decreasing] |
| Cc1ccc(CNC(=O)c2ccc(NS(=O)(=O)c3c(C)noc3C)cc2)cc1 | inconclusive [decreasing] |
